T1: UNK ZnF1-3 (human, UniProt Q9C0B0 31-174)
T1 sequence: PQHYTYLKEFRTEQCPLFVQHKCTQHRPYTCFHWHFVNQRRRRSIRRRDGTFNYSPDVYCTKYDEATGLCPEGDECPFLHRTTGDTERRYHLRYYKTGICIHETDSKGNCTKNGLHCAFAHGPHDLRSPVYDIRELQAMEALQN

B1: chr2:91395433:91395434:+_ENSMUSG00000040549_ENSMUST00000099716|mus_mus|FALSE|FALSE (ssRNA)
RNA: GGGAGUUCUACAGUCCGACGAUCUGGCUUAAGUGAGAUGAUUUUGGAACCAAAUUCACUUAAGGCUUUCCUCAGUGUUUCUAUACAGGCCACUAUGAUCUUGGGGUUCUUGUUAUCCAGGCCCUUCAGAAGCUCUUCUUGUACCAACAGAGGAUUGAGCAUCA
B2: 107366858_107366978_2518_3pUTR_ENSG00000151135_ENST00000280756|human|control|control (ssRNA)
RNA: GGGAGUUCUACAGUCCGACGAUCGAAAUACCUUAAAUCAUACUGCAUGAAAUAAAUGACCAUUUAAUUCCUGAUUAGUUGAACUCCUUAAUGACUUUUCAGUUUUGUAUAUAAUAGAAAGGUUCAAGAACCUUUGUAGAUUUGCAACAGAGGAUUGAGCAUCA
B3: chr7:151048522:151048523:+_ENSG00000013374_ENST00000566856|hu_mus|hu_hu_hu_mus_True|98_108 (ssRNA)
RNA: GGGAGUUCUACAGUCCGACGAUCCUGCUUCUUAUUUAUGACAAUUUUGAUGUAAUUUUCUUGAAAUCCGAAAGUUUCAGCUAUUUGACACCUCAGGUCUCUACCAGUGACAUGCAAGCGGGUCUCCAACAAGCUUUUCUUAUCCAACAGAGGAUUGAGCAUCA
B4: chr11:74329583:74329584:+_ENSG00000077514_ENST00000263681|hu_mus|FALSE|FALSE (ssRNA)
RNA: GGGAGUUCUACAGUCCGACGAUCGGAAGAUGGGGAUUCUGCAGGAGCUCUGGGGACUGCAGCUGCACACUGUAUGGCACUAAACUUGCUGCAGUUCUGCAAAUUGCUUUUAAGGAUGUCAUAGUCGGUAUUGAACAGAGGCCCCAACAGAGGAUUGAGCAUCA
B5: chr21:30434530:30434531:-_ENSG00000156261_ENST00000286788|hu_hu|FALSE|FALSE (ssRNA)
RNA: GGGAGUUCUACAGUCCGACGAUCAUCGUCUACUGCCCUUUCUAUGUCAUCCAUCAGAUUGUCUGUAGAGCCUCGAAGUACUAUGGUAGAAAUGGCGCCAUCUUCCUUUUCAUGCUUAAAAACCACCACCUGAGUAUCUCCAACCAACAGAGGAUUGAGCAUCA
B6: 125398164_125398284_160_CDS_ENSG00000150991_ENST00000546120|human|control|control (ssRNA)
RNA: GGGAGUUCUACAGUCCGACGAUCUUCCAGCUGUUUUCCAGCAAAGAUCAGCCUCUGCUGGUCAGGAGGGAUGCCUUCCUUAUCUUGGAUCUUUGCCUUGACAUUCUCGAUGGUGUCACUGGGCUCAACCUCGAGGGUGAUGGUCAACAGAGGAUUGAGCAUCA
B7: 65185493_65185613_980_3pUTR_ENSMUSG00000027828_ENSMUST00000029414|mouse|control|control (ssRNA)
RNA: GGGAGUUCUACAGUCCGACGAUCCGAAAAGUUGUAAUAUUGUGCUUGGAACACAGAGAACCAGUUAUUAACUUCUUCCUCCUAUUAUAAAUAAUAACAGCUCAGUCCAGGUUACCAUGACCUCUGACAGAUGUAGGAAACAAGCAACAGAGGAUUGAGCAUCA
B8: chr7:7679991:7679992:-_ENSG00000106399_ENST00000396682|hu_hu|hu_hu_hu_mus_False|38_98 (ssRNA)
RNA: GGGAGUUCUACAGUCCGACGAUCUGGGAUGAAUCUUUUCCAGCCUCCCCACGAAGCACACGGGCCGGUCGAUAUACUGUGGUAACAUGCUGGCGUUGAUGCGCGACUUGGGGAGCUGCAUUAUGUCCUCCAUGAUUCUGCCGCCAACAGAGGAUUGAGCAUCA
B9: 63930684_63932353_12046_CDS_ENSG00000103657_ENST00000443617|human|control|control (ssRNA)
RNA: GGGAGUUCUACAGUCCGACGAUCCCUACCAGCACCCCAUAAGUAGACAUCACAUUUACCUCCCAGGUGCCAGUCCUCAGGUCUGGAAGUUGCCCAAGACAUAAUUUGUUCAUCCAUGCCGUUAAUCCAUUUACUGUUAUCCAUCAACAGAGGAUUGAGCAUCA
B10: chr5:138654669:138654670:+_ENSG00000015479_ENST00000502499|hu_mus|FALSE|FALSE (ssRNA)
RNA: GGGAGUUCUACAGUCCGACGAUCUUUCUUUAUUCUCUUAUACUUCUGGGAUAAAUGAACUCUCACUGGCUUGCCAAACACUAAUGCUGGUGUAGUUGUAUAAUAAUCCACAGCAGCCUGAGCAUCUUCUGUGGUGGCCAUUUCCAACAGAGGAUUGAGCAUCA
B11: chr5:145543945:145543946:-_ENSG00000133706_ENST00000545646|hu_hu|hu_hu_hu_mus_True|1_98 (ssRNA)
RNA: GGGAGUUCUACAGUCCGACGAUCCUGAACGGCCAGUGGCGGGAAAUAAUCAAGCCAGUGCUCUGCUUCAGAAAACUUCACUAUGUCGUCAUCAGAGAGCCCAAGGGAUUUCAUAAUGUCCCACUGGUACUUAGAAGAUCCAGCCAACAGAGGAUUGAGCAUCA
B12: chr3:150289932:150289933:+_ENSG00000144895_ENST00000460851|hu_hu|hu_hu_hu_mus_False|98_108 (ssRNA)
RNA: GGGAGUUCUACAGUCCGACGAUCCUUGUAGUUUUUCACAUCCCACACUUCCAUUUGUCCUCGAAGAUUUCCAAAUCCAGCCAGCACUAAUAUAUGUCCAUGAGGGCUAUAGAAGGCUGCGUUGCGAGGACCAGUCCCAAAGUCCAACAGAGGAUUGAGCAUCA
B13: chr7:135612270:135612271:-_ENSG00000105887_ENST00000393085|hu_mus|hu_hu_hu_mus_False|48_98 (ssRNA)
RNA: GGGAGUUCUACAGUCCGACGAUCGUUUUUUUCUGAGUAAGUAUUACGUACUUCAGUGGAAAACAAAACUUAACCUUUUAUUAAUGCAUGUAGUACCAAAAGCAGACAUUUUAGCUUCAUUUAUUCAAAAAUAUUAACAUUAAGCAACAGAGGAUUGAGCAUCA
B14: chr1:184663225:184663226:-_ENSG00000116406_ENST00000318130|hu_mus|motif|central (ssRNA)
RNA: GGGAGUUCUACAGUCCGACGAUCCACCAGAGUCUUUCCAGAGAGUCAUAGUUCAUCCUUCUCCAUCAUUUCAAAUGCUUCGGUGUCUUCAUUCCAGUCUGCUAAUAUGGAGUCUAUAGGCUGGGCCUUUGUACCCCAGCUGACCAACAGAGGAUUGAGCAUCA

The list shows a part of the results.

The target of the test is T1, UNK ZnF1-3. Kind of test: nsRBNS (natural sequence RNA bind-n-seq); RBNS binding buffer (assumed for nsRBNS): 25 mM Tris pH 7.5, 150 mM KCl, 3 mM MgCl2, 0.01% Triton X-100, 500 ug/ml BSA, 20 U/ml SUPERase-In, 4 C; UNK is unkempt and MSI1 is Musashi-1; names of the RNAs are library labels; protein concentration not given here; high values mean tight binding.
For the molecule B1, the binding signal came to 0.563 enrichment R.

The molecule B2 gave a binding signal of 0.507 enrichment R.

As to B3, the binding signal stood at 0.812 enrichment R. The same measure for B4: 0.98 enrichment R; for B5: 1.26 enrichment R. As for B6, the figure is 0.589 enrichment R. For B7, the binding signal came out at 1.16 enrichment R.

In the case of B8, the binding signal stood at 0.453 enrichment R. B9 yielded a binding signal of 1.03 enrichment R.

In turn, B10 showed a binding signal of 1.1 enrichment R.

The molecule B11 came in with a binding signal of 1.47 enrichment R.

Turning to B12, the binding signal was 1.29 enrichment R. As for B13, the figure is 0.817 enrichment R. As for B14, the figure is 1.08 enrichment R.

For the origin of these results see paper PMC12136788.
